Assay results taken from the BET-seq Pho4 binding data (Le et al. 2018).
Some of the results follow. The energies were worked out here from pooled read counts, against the library average; single values are noisy.

target: T1, Pho4 (S. cerevisiae) (UniProt P07270); assay: relative binding free energy (BET-seq); higher = weaker binding; conditions: reference: library average
T1 sequence: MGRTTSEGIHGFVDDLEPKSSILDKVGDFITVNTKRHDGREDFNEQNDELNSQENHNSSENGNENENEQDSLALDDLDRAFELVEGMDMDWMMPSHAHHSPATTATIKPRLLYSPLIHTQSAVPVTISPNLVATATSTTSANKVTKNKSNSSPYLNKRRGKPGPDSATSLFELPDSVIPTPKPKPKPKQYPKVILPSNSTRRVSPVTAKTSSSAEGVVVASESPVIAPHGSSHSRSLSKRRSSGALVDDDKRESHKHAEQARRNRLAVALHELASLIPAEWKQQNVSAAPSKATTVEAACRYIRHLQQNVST

Row | Sequence | relative binding free energy [kcal/mol]
1 | TGAGACACGTGGGTTC | 0.02
2 | GGTGGCACGTGAAATA | 0.26
3 | GTTTCCACGTGTGATG | 0.38
4 | GGTTTCACGTGTCCTT | 0.27
5 | TGTTCCACGTGGCGTG | -0.01
6 | TTTTACACGTGGAGCG | 0.08
7 | TTAAGCACGTGGAATG | -0.05
8 | CGGCGCACGTGAGGTT | 0.1
9 | GTGTCCACGTGTAGGG | 0.09
10 | TTCGGCACGTGTTGGA | 0
11 | TTTGGCACGTGAGCTG | 0.15
12 | ACTGGCACGTGAGGTT | 0.23
13 | GAATTCACGTGGGCAG | 0.4
14 | TAGCACACGTGGGGGA | -0.2
15 | TTATGCACGTGGATCG | 0.01
16 | AGGCTCACGTGTCGGT | 0.25
17 | TAGTTCACGTGTAGCA | 0.37
18 | GGTGGCACGTGCTAGC | -0.09
19 | TGCAGCACGTGCGGGA | -0.1

Row | Sequence | relative binding free energy [kcal/mol]
20 | TGTAGCACGTGTATTG | -0.15
21 | GTAGGCACGTGGCTAA | -0.1
22 | GGCTGCACGTGCTGTG | 0.06
23 | CATTACACGTGGGGTG | -0.01
24 | GTTGGCACGTGTGAGT | 0.07
25 | AAGGGCACGTGGAGGG | -0.25
26 | TGGAACACGTGTAATG | 0.07
27 | TTGGACACGTGGTGTC | 0.02
28 | TAAGCCACGTGATTTT | 0.2
29 | AAGGCCACGTGGTTGA | -0.1
30 | CGGTTCACGTGTTTGG | 0.24
31 | AAGTACACGTGGGGGA | 0.01
32 | GGTGGCACGTGCGGGC | 0.05
33 | ATAGGCACGTGAGCTG | 0.16
34 | TGGTTCACGTGTGGTG | 0.35
35 | GGTTGCACGTGTCTTA | 0.15
36 | CGAGGCACGTGGTGGT | -0.15
37 | CGAAACACGTGAGGGG | 0.22
38 | CGGGACACGTGGGTTT | -0.06

Row | Sequence | relative binding free energy [kcal/mol]
39 | GTTTGCACGTGATGCG | 0.06
40 | TGGCACACGTGTATGT | 0.07
41 | TCGTGCACGTGTTGTG | 0.03
42 | CGGGGCACGTGGTTCT | -0.22
43 | CTACGCACGTGGTGGT | -0.3
44 | GTGCTCACGTGTGATT | 0.14
45 | GGACGCACGTGTCGGG | -0.12
46 | GGAGACACGTGTGTAG | 0.01
47 | TGGCGCACGTGTGTTA | 0.05
48 | TATTGCACGTGCAGTT | 0.02
49 | TCGGGCACGTGTGCGT | -0.06
50 | ATGGGCACGTGAGCGA | -0.05
51 | TCTGTCACGTGTAGGC | 0.06
52 | GATTACACGTGGGAGG | 0.17
53 | AGGAGCACGTGCTTGT | -0.15
54 | GTTATCACGTGGTAAG | 0.14
55 | TTGATCACGTGTTGAG | 0.15
56 | GTTGGCACGTGGTTGG | -0.01
57 | GCATACACGTGAAGGT | 0.48
